Assay results as given in the supplement of paper PMC7826260.
Some of the results follow. One pool of 16,384 single-stranded DNAs met each Rep nickase domain in vitro (3 µM enzyme, 1 h, 37 °C); shown is the middle of each 90-letter strand. The score is log2 (uncut reads / reads without enzyme); the lower, the more was cut; hits are not called. Reads are scaled to the total, so uncut sequences can rise above 0 when many others are cut.

tested on: T1, Rep nickase domain of tomato golden mosaic virus; assay: uncleaved DNA left, log2 of reads against the no-enzyme library (log2 ratio); higher = less cleavage (more negative = more Rep cleavage of the k-mer); sequences stand for … in CTCGTCCG…ACCGGAGA
T1 sequence (protein, residues 1-124, tag omitted): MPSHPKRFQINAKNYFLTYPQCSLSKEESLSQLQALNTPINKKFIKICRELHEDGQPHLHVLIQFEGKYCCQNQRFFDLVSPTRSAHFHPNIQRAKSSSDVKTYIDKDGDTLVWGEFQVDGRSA
Protocol: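 A pool of 90-nt single-stranded DNAs with seven random bases just before the constant AC of the nick site (name = the seven bases) was cut by 3 µM recombinant His6-SUMO-tagged Rep nickase domain (300 nM DNA, 50 mM HEPES pH 8.0, 50 mM NaCl, 1 mM MnCl2, 1 h, 37 °C, three replicates). Uncut DNA was amplified and sequenced.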

| Sequence | uncleaved DNA left (log2) |
| --- | --- |
| TACATTC | -0.034 |
| CGCCACG | 0.0232 |
| GACATTC | -0.0241 |
| AAGTGAA | 0.18 |
| GTGTAGG | 0.161 |
| TCTTTAC | 0.107 |
| ATAGCGA | -0.0193 |
| GCACGCG | -0.00252 |
| GAACCAC | -0.0946 |
| TCCTGTC | 0.184 |
| TCCCAGC | 0.0197 |
| TAATCTC | -4.12 |
| GGTGAGC | 0.0223 |
| CGTTCGC | -0.0488 |
| AAATCAG | 0.0485 |
| TGCATTG | 0.0324 |
| GTAATTT | 0.0553 |
| CTTTTAT | -0.0663 |
| GAGGTCC | -0.00938 |
| CCGATTC | 0.0741 |

| Sequence | uncleaved DNA left (log2) |
| --- | --- |
| TGGCACT | -0.0972 |
| AGTCTGC | -0.0856 |
| ATTAGGT | 0.00241 |
| GCCGAGA | 0.122 |
| TATGTCT | -0.241 |
| GCATAAA | 0.0551 |
| TCTAGCC | 0.0606 |
| GGTCGTC | -0.017 |
| TATGTGG | 0.027 |
| TTATATG | -0.0302 |
| GAAACCC | -0.0361 |
| TCTCATG | -0.0988 |
| ACTTCGG | 0.126 |
| CGCCCAT | -0.0273 |
| GCTCTGA | 0.144 |
| CATGCCT | -0.199 |
| GCTCCAA | -0.22 |
| TCTAAAC | 0.222 |
| TCCACGC | -0.18 |
| AATGGCA | 0.113 |
